{"sequences": {"note": "Sequences of proteins named here, by UniProt entry; tags and fusion partners are left off. A change or cut given only in a name is not applied to a line headed by its entry. Residues count along the entry.", "UniProt P03197": "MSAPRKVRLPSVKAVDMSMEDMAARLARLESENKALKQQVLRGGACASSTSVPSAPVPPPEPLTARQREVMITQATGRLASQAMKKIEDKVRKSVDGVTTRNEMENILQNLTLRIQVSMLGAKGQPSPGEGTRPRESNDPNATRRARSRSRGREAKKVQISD", "GST-BLRF2 aa1–130": "residues 1-130 of P03197", "GST-BLRF2 aa42–162": "residues 42-162 of P03197", "UniProt P78362": "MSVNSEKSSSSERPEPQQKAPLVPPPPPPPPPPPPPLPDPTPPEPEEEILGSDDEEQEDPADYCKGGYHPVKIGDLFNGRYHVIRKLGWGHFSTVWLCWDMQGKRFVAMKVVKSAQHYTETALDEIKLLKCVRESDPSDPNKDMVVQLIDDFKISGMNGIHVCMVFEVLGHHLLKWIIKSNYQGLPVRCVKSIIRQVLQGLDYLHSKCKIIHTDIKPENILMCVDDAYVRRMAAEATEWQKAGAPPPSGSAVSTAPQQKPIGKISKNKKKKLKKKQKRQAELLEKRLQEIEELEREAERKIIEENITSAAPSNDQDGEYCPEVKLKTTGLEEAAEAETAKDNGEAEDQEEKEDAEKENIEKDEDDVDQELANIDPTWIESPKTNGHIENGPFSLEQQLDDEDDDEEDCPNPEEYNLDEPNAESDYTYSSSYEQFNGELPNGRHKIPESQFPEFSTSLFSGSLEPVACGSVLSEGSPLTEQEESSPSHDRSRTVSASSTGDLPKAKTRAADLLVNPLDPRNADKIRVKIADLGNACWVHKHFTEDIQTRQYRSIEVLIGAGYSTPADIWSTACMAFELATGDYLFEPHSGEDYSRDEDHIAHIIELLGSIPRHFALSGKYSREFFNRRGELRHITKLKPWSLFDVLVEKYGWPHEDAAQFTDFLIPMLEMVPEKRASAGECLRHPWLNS"}, "source": "paper PMC3541133", "molecules": {"B1": {"name": "ZBED1 (human ORFeome v5.1 hybrid protein, partner of gal4-DB-BLRF2) (protein, UniProt O96006 1-694)", "chain": "MENKSLESSQTDLKLVAHPRAKSKVWKYFGFDTNAEGCILQWKKIYCRICMAQIAYSGNTSNLSYHLEKNHPEEFCEFVKSNTEQMREAFATAFSKLKPESSQQPGQDALAVKAGHGYDSKKQQELTAAVLGLICEGLYPASIVDEPTFKVLLKTADPRYELPSRKYISTKAIPEKYGAVREVILKELAEATWCGISTDMWRSENQNRAYVTLAAHFLGLGAPNCLSMGSRCLKTFEVPEENTAETITRVLYEVFIEWGISAKVFGATTNYGKDIVKACSLLDVAVHMPCLGHTFNAGIQQAFQLPKLGALLSRCRKLVEYFQQSAVAMYMLYEKQKQQNVAHCMLVSNRVSWWGSTLAMLQRLKEQQFVIAGVLVEDSNNHHLMLEASEWATIEGLVELLQPFKQVAEMLSASRYPTISMVKPLLHMLLNTTLNIKETDSKELSMAKEVIAKELSKTYQETPEIDMFLNVATFLDPRYKRLPFLSAFERQQVENRVVEEAKGLLDKVKDGGYRPAEDKIFPVPEEPPVKKLMRTSTPPPASVINNMLAEIFCQTGGVEDQEEWHAQVVEELSNFKSQKVLGLNEDPLKWWSDRLALFPLLPKVLQKYWCVTATRVAPERLFGSAANVVSAKRNRLAPAHVDEQVFLYENARSGAEAEPEDQDEGEWGLDQEQVFSLGDGVSGGFFGIRDSSFL"}, "B2": {"name": "GFP tagged BNRF1 (protein, UniProt P03179 1-1318)", "chain": "MEERGRETQMPVARYGGPFIMVRLFGQDGEANIQEERLYELLSDPRSALGLDPGPLIAENLLLVALRGTNNDPRPQRQERARELALVGILLGNGEQGEHLGTESALEASGNNYVYAYGPDWMARPSTWSAEIQQFLRLLGATYVLRVEMGRQFGFEVHRSRPSFRQFQAINHLVLFDNALRKYDSGQVAAGFQRALLVAGPETADTRPDLRKLNEWVFGGRAAGGRQLADELKIVSALRDTYSGHLVLQPTETLDTWKVLSRDTRTAHSLEHGFIHAAGTIQANCPQLFMRRQHPGLFPFVNAIASSLGWYYQTATGPGADARAAARRQQAFQTRAAAECHAKSGVPVVAGFYRTINATLKGGEGLQPTMFNGELGAIKHQALDTVRYDYGHYLIMLGPFQPWSGLTAPPCPYAESSWAQAAVQTALELFSALYPAPCISGYARPPGPSAVIEHLGSLVPKGGLLLFLSHLPDDVKDGLGEMGPARATGPGMQQFVSSYFLNPACSNVFITVRQRGEKINGRTVLQALGRACDMAGCQHYVLGSTVPLGGLNFVNDLASPVSTAEMMDDFSPFFTVEFPPIQEEGASSPVPLDVDESMDISPSYELPWLSLESCLTSILSHPTVGSKEHLVRHTDRVSGGRVAQQPGVGPLDLPLADYAFVAHSQVWTRPGGAPPLPYRTWDRMTEKLLVSAKPGGENVKVSGTVITLGEQGYKVSLDLREGTRLAMAEALLNAACAPILDPEDVLLTLHLHLDPRRADNSAVMEAMTAASDYARGLGVKLTFGSASCPETGSSASNFMTVVASVSAPGEFSGPLITPVLQKTGSLLIAVRCGDGKIQGGSLFEQLFSDVATTPRAPEALSLKNLFRAVQQLVKSGIVLSGHDISDGGLVTCLVEMALAGQRGVTITMPVASDYLPEMFAEHPGLVFEVEERSVGEVLQTLRSMNMYPAVLGRVGEQGPDQMFEVQHGPETVLRQSLRLLLGTWSSFASEQYECLRPDRINRSMHVSDYGYNEALAVSPLTGKNLSPRRLVTEPDPRCQVAVLCAPGTRGHESLLAAFTNAGCLCRRVFFREVRDNTFLDKYVGLAIGGVHGARDSALAGRATVALINRFPALRDAILKFLNRPDTFSVALGELGVQVLAGLGAVGSTDNPPAPGVEVNVQRSPLILAPNASGMFESRWLNISIPATTSSVMLRGLRGCVLPCWVQGSCLGLQFTNLGMPYVLQNAHQIACHFHSNGTDAWRFAMNYPRNPTEQGNIAGLCSRDGRHLALLCDPSLCTDFWQWEHIPPAFGHPTGCSPWTLMFQAAHLWSLRHGRPSE"}, "B3": {"name": "GFP tagged ZBED1 (protein, UniProt O96006 1-694)", "chain": "B1 chain"}, "B4": {"name": "GFP tagged SRPRB (protein, UniProt Q9Y5M8 1-271)", "chain": "MASADSRRVADGGGAGGTFQPYLDTLRQELQQTDPTLLSVVVAVLAVLLTLVFWKLIRSRRSSQRAVLLVGLCDSGKTLLFVRLLTGLYRDTQTSITDSCAVYRVNNNRGNSLTLIDLPGHESLRLQFLERFKSSARAIVFVVDSAAFQREVKDVAEFLYQVLIDSMGLKNTPSFLIACNKQDIAMAKSAKLIQQQLEKELNTLRVTRSAAPSTLDSSSTAPAQLGKKGKEFEFSQLPLKVEFLECSAKGGRGDVGSADIQDLEKWLAKIA"}}, "key": {"[1]": {"biological_target": "FLAG-HA-BLRF2 (Epstein-Barr virus) (UniProt P03197)", "test": "co-IP; FLAG-HA-BLRF2 P3HR1-ZHT cells induced with 4-hydroxytamoxifen for 48 hours; total lysate, cytoplasmic and nuclear fractions (hypotonic lysis) immunoprecipitated with flag beads (M2); blotted for BLRF2 (HA antibody) and SRPK2"}, "[2]": {"biological_target": "GST-BLRF2 (1–162) (Epstein-Barr virus) (UniProt P03197)", "test": "pull-down; GST-BLRF2 construct and GFP tagged protein co-expressed in 293T cells; 1% NP-40 lysis buffer (50 mM Tris pH 7.5, 150 mM NaCl); Glutathione Sepharose 4B, 2 hours at 4°C; western blot with anti-GFP and anti-GST"}, "[3]": {"biological_target": "GST-BLRF2 aa1–130 (Epstein-Barr virus) (UniProt P03197)", "test": "pull-down; GST-BLRF2 construct and GFP tagged protein co-expressed in 293T cells; 1% NP-40 lysis buffer (50 mM Tris pH 7.5, 150 mM NaCl); Glutathione Sepharose 4B, 2 hours at 4°C; western blot with anti-GFP and anti-GST"}, "[4]": {"biological_target": "GST-BLRF2 aa42–162 (Epstein-Barr virus) (UniProt P03197)", "test": "pull-down; GST-BLRF2 construct and GFP tagged protein co-expressed in 293T cells; 1% NP-40 lysis buffer (50 mM Tris pH 7.5, 150 mM NaCl); Glutathione Sepharose 4B, 2 hours at 4°C; western blot with anti-GFP and anti-GST"}, "[5]": {"biological_target": "BLRF2 yeast two-hybrid fusions (gal4-AD-BLRF2 and gal4-DB-BLRF2) (Epstein-Barr virus) (UniProt P03197)", "test": "two-hybrid; gal4-DB-BLRF2 (bait configuration) screened against the human ORFeome v5.1; also published as part of a larger dataset (ref. 22)"}}, "note": "Results are given in words; binding and its absence hold for the method and conditions named. For some of these results: Binding seen in cells or lysates may run through a third protein. Some results given as binding are weak or reduced against the parent protein; the word gives no strength. For some of these results: Sequences can lack the tags named with a protein.", "data": [{"molecule": "SRPK2 (endogenous, P3HR1-ZHT cells) (from UniProt P78362 1-688) (enzyme)", "values": [{"measurement": "binding", "setting": "[1]", "result": "binds"}]}, {"molecule": "GFP-SRPK2 (from UniProt P78362 1-688) (enzyme)", "values": [{"measurement": "binding", "setting": "[2]", "result": "binds"}, {"measurement": "binding", "setting": "[3]", "result": "no binding"}, {"measurement": "binding", "setting": "[4]", "result": "binds"}]}, {"molecule": "GFP-BLRF2 (from UniProt P03197 1-162)", "values": [{"measurement": "binding", "setting": "[3]", "result": "binds"}, {"measurement": "binding", "setting": "[4]", "result": "binds"}]}, {"molecule": "B1", "values": [{"measurement": "binding", "setting": "[5]", "result": "binds"}]}, {"molecule": "B2", "values": [{"measurement": "binding", "setting": "[2]", "result": "binds"}, {"measurement": "binding", "setting": "[3]", "result": "no binding"}, {"measurement": "binding", "setting": "[4]", "result": "binds"}]}, {"molecule": "B3", "values": [{"measurement": "binding", "setting": "[2]", "result": "binds"}, {"measurement": "binding", "setting": "[3]", "result": "no binding"}, {"measurement": "binding", "setting": "[4]", "result": "binds"}]}, {"molecule": "B4", "values": [{"measurement": "binding", "setting": "[2]", "result": "binds"}, {"measurement": "binding", "setting": "[3]", "result": "no binding"}, {"measurement": "binding", "setting": "[4]", "result": "binds"}]}]}
